Results taken from the supplement of paper PMC8728848.
The other results are listed elsewhere or left out.

Tests used:
Test in all cases: glycan array binding signal (z-score within array); higher = stronger binding
Conditions in all cases: glycan notation: IUPAC condensed, linker removed
[1] = biological target: Neu5Ac(a2-6)Gal(b1-4)GlcNAc(b1-2)Man(a1-6)[Gal(b1-4)GlcNAc(b1-2)Man(a1-3)]Man(b1-4)GlcNAc(b1-4)GlcNAc
Procedure, shortened: (§1)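 The Consortium for Functional Glycomics database supplied 3228 glycan arrays, of which those lacking an available protein sequence were dropped. The binding signal, a within-array Z-score, was averaged across arrays of the same protein sequence and across linkers. Negative scores can be read as non-binding.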

[2] = biological target: Neu5Ac(a2-6)Gal(b1-4)GlcNAc(b1-2)Man(a1-6)[GlcNAc(b1-2)Man(a1-3)]Man(b1-4)GlcNAc(b1-4)GlcNAc
Procedure, shortened: as §1

[3] = biological target: Neu5Ac(a2-6)Gal(b1-4)GlcNAc(b1-2)Man(a1-6)[Man(a1-3)]Man(b1-4)GlcNAc(b1-4)GlcNAc
Procedure, shortened: as §1

[4] = biological target: Neu5Ac(a2-6)Gal(b1-4)GlcNAc(b1-3)Gal(b1-3)GlcNAc
Procedure, shortened: as §1

[5] = biological target: Neu5Ac(a2-6)Gal(b1-4)GlcNAc(b1-3)Gal(b1-4)GlcNAc
Procedure, shortened: as §1

[6] = biological target: Neu5Ac(a2-6)Gal(b1-4)GlcNAc(b1-3)Gal(b1-4)GlcNAc(b1-3)Gal(b1-4)GlcNAc
Procedure, shortened: as §1

[7] = biological target: Neu5Ac(a2-6)Gal(b1-4)GlcNAc(b1-3)Gal(b1-4)[Fuc(a1-3)]GlcNAc(b1-3)Gal(b1-4)[Fuc(a1-3)]GlcNAc
Procedure, shortened: as §1

[8] = biological target: Neu5Ac(a2-6)Gal(b1-4)GlcNAc(b1-3)GalNAc
Procedure, shortened: as §1

[9] = biological target: Neu5Ac(a2-6)Gal(b1-4)GlcNAc6S
Procedure, shortened: as §1

Neu5Ac(a2-6)GalNAc = biological target: Neu5Ac(a2-6)GalNAc
Procedure, shortened: as §1

[10] = biological target: Neu5Ac(a2-6)GalNAc(b1-4)GlcNAc
Procedure, shortened: as §1

[11] = biological target: Neu5Ac(a2-6)GlcNAc(b1-4)GlcNAc
Procedure, shortened: as §1

[12] = biological target: Neu5Ac(a2-6)GlcNAc(b1-4)GlcNAc(b1-4)GlcNAc
Procedure, shortened: as §1

Neu5Ac(a2-8)Neu5Ac = biological target: Neu5Ac(a2-8)Neu5Ac
Procedure, shortened: as §1

[13] = biological target: Neu5Ac(a2-8)Neu5Ac(a2-3)Gal(b1-3)GalNAc(b1-4)[Neu5Ac(a2-8)Neu5Ac(a2-3)]Gal(b1-4)Glc
Procedure, shortened: as §1

[14] = biological target: Neu5Ac(a2-8)Neu5Ac(a2-3)Gal(b1-4)Glc
Procedure, shortened: as §1

[15] = biological target: Neu5Ac(a2-8)Neu5Ac(a2-3)[Gal(b1-3)GalNAc(b1-4)]Gal(b1-4)Glc
Procedure, shortened: as §1

[16] = biological target: Neu5Ac(a2-8)Neu5Ac(a2-3)[GalNAc(b1-4)]Gal(b1-4)Glc
Procedure, shortened: as §1

[17] = biological target: Neu5Ac(a2-8)Neu5Ac(a2-8)Neu5Ac
Procedure, shortened: as §1

[18] = biological target: Neu5Ac(a2-8)Neu5Ac(a2-8)Neu5Ac(a2-3)Gal(b1-4)Glc
Procedure, shortened: as §1

[19] = biological target: Neu5Ac(a2-8)Neu5Ac(a2-8)Neu5Ac(a2-3)[GalNAc(b1-4)]Gal(b1-4)Glc
Procedure, shortened: as §1

[20] = biological target: Neu5Ac(a2-8)Neu5Ac(a2-8)Neu5Ac(a2-8)Neu5Ac(a2-3)[GalNAc(b1-4)]Gal(b1-4)Glc
Procedure, shortened: as §1

[21] = biological target: Neu5Ac(b2-6)Gal(b1-4)GlcNAc
Procedure, shortened: as §1

Neu5Ac(b2-6)GalNAc = biological target: Neu5Ac(b2-6)GalNAc
Procedure, shortened: as §1

[22] = biological target: Neu5Ac9Ac(a2-3)Gal(b1-3)GlcNAc
Procedure, shortened: as §1

[23] = biological target: Neu5Ac9Ac(a2-3)Gal(b1-4)GlcNAc
Procedure, shortened: as §1

[24] = biological target: Neu5Ac9Ac(a2-6)Gal(b1-4)GlcNAc
Procedure, shortened: as §1

[25] = biological target: Neu5Gc(a2-3)Gal(b1-3)GlcNAc
Procedure, shortened: as §1

[26] = biological target: Neu5Gc(a2-3)Gal(b1-3)[Fuc(a1-4)]GlcNAc
Procedure, shortened: as §1

Neu5Gc(a2-3)Gal(b1-4)Glc = biological target: Neu5Gc(a2-3)Gal(b1-4)Glc
Procedure, shortened: as §1

[27] = biological target: Neu5Gc(a2-3)Gal(b1-4)GlcNAc
Procedure, shortened: as §1

[28] = biological target: Neu5Gc(a2-3)Gal(b1-4)[Fuc(a1-3)]GlcNAc
Procedure, shortened: as §1

[29] = biological target: Neu5Gc(a2-6)Gal(b1-4)GlcNAc
Procedure, shortened: as §1

Neu5Gc(a2-6)GalNAc = biological target: Neu5Gc(a2-6)GalNAc
Procedure, shortened: as §1

[30] = biological target: Neu5Gc(b2-6)Gal(b1-4)GlcNAc
Procedure, shortened: as §1

B1: SefD (Salmonella enterica), Q9L6K6 (protein)
chain: GAYIIRGQNNSAHKLRIRIGGEDWQPDNSGIGMVSHSDFTNEFNIYYFGNGDIPVDTYLISIYATEIEL
glycan array binding signal (z-score) [1]: -0.646 | glycan array binding signal (z-score) [2]: -0.228 | glycan array binding signal (z-score) [3]: -0.157 | glycan array binding signal (z-score) [4]: -0.157 | glycan array binding signal (z-score) [5]: 1.78 | glycan array binding signal (z-score) [6]: 0.312 | glycan array binding signal (z-score) [7]: -0.108 | glycan array binding signal (z-score) [8]: -0.405 | glycan array binding signal (z-score) [9]: 0.087 | glycan array binding signal (z-score) (Neu5Ac(a2-6)GalNAc): 0.116 | glycan array binding signal (z-score) [10]: -0.259 | glycan array binding signal (z-score) [11]: -0.535 | glycan array binding signal (z-score) [12]: -0.293 | glycan array binding signal (z-score) (Neu5Ac(a2-8)Neu5Ac): 1.37 | glycan array binding signal (z-score) [13]: -0.42 | glycan array binding signal (z-score) [14]: 0.431 | glycan array binding signal (z-score) [15]: 0.969 | glycan array binding signal (z-score) [16]: -0.42 | glycan array binding signal (z-score) [17]: -0.435 | glycan array binding signal (z-score) [18]: -0.496 | glycan array binding signal (z-score) [19]: -0.374 | glycan array binding signal (z-score) [20]: -0.331 | glycan array binding signal (z-score) [21]: -0.3 | glycan array binding signal (z-score) (Neu5Ac(b2-6)GalNAc): -0.628 | glycan array binding signal (z-score) [22]: -0.479 | glycan array binding signal (z-score) [23]: -0.352 | glycan array binding signal (z-score) [24]: -0.295 | glycan array binding signal (z-score) [25]: 0.217 | glycan array binding signal (z-score) [26]: -0.378 | glycan array binding signal (z-score) (Neu5Gc(a2-3)Gal(b1-4)Glc): -0.187 | glycan array binding signal (z-score) [27]: -0.51 | glycan array binding signal (z-score) [28]: -0.358 | glycan array binding signal (z-score) [29]: 0.422 | glycan array binding signal (z-score) (Neu5Gc(a2-6)GalNAc): -0.478 | glycan array binding signal (z-score) [30]: -0.326
